Data on 153 variants can be found in a collection of fitness landscapes (doi:10.1126/science.1257360).

Sequences and labels used below:
B1: PhoQ; a variant is named by its letters at X, in order, P23837 (parent)
chain: MKKLLRLFFPLSLRVRFLLATAAVVLVLSLAYGMVALIGYSVSFDKTTFRLLRGESNLFYTLAKWENNKLHVELPENIDKQSPTMTLIYDENGQLLWAQRDVPWLMKMIQPDWLKSNGFHEIEADVNDTSLLLSGDHSIQQQLQEVREDDDDAEMTHSVAVNVYPATSRMPKLTIVVVDTIPVELKSSYMVWSWFIYVLSANLLLVIPLLWVAAWWSLRPIEALAKEVRELEEHNRELLNPATTRELTSLVRNLNRLLKSERERYDKYRTTLTDLTHSLKTPLXXLQXXLRSLRSEKMSVSDAEPVMLEQISRISQQIGYYLHRASMRGGTLLSRELHPVAPLLDNLTSALNKVYQRKGVNISLDISPEISFVGEQNDFVEVMGNVLDNACKYCLEFVEISARQTDEHLYIVVEDDGPGIPLSKREVIFDRGQRVDTLRPGQGVGLAVAREITEQYEGKIVAGESMLGGARMEVIFGRQHSAPKDE

The list shows a part of the results. Bounds are passed on as bounds.

In the experiment the parent is B1. The experiment can be described thus: enrichment ratio after two sorts for PhoP signalling (ratio (wild type AVST 3.29)); higher = more functional. As to conditions: with PhoP (E. coli).
Turning to DTVF, the enrichment ratio was at most 0.25.

As to VAMM, the enrichment ratio is 12.8.

On to KCYL, for which the enrichment ratio was at most 0.25.

Take NMRL: the enrichment ratio was at most 0.25.

With RHEP, the enrichment ratio is at most 0.25.

In the case of KFVF, the enrichment ratio is at most 0.25.

On to GCKR, for which the enrichment ratio was at most 0.25.

For FIHP, the enrichment ratio was at most 0.25.

With IWIN, the enrichment ratio was at most 0.25.

Take ICIP: the enrichment ratio was at most 0.25.

Turning to NTIT, the enrichment ratio was at most 0.25.

Take PKPQ: the enrichment ratio was at most 0.25.

As to DPRC, the enrichment ratio was at most 0.25.

Regarding FMHC, the enrichment ratio is at most 0.25.

As for KVDQ, the enrichment ratio was at most 0.25.

ENFN: the enrichment ratio was at most 0.25.

Consider RPTW, for which the enrichment ratio was at most 0.25.

On to WCPS, for which the enrichment ratio was at most 0.25.

With QNRI, the enrichment ratio was at most 0.25.

As for QGFH, the enrichment ratio stood at 4.44.

Take MKRL: the enrichment ratio was at most 0.25.

Take EPFY: the enrichment ratio was at most 0.25.

For RFKH, the enrichment ratio was at most 0.25.

As to AWFT, the enrichment ratio was at most 0.25.

On to SAKR, for which the enrichment ratio was at most 0.25.

RWMT: the enrichment ratio was at most 0.25.

As for VFDV, the enrichment ratio is at most 0.25.

As to IWHI, the enrichment ratio was at most 0.25.

Regarding IFYF, the enrichment ratio is at most 0.25.

QKLN: the enrichment ratio is at most 0.25.

On to GRGI, for which the enrichment ratio is at most 0.25.

Regarding LRYV, the enrichment ratio was at most 0.25.

With PQYG, the enrichment ratio is at most 0.25.

On to PMGC, for which the enrichment ratio was at most 0.25.

Regarding TTFI, the enrichment ratio is at most 0.25.

As to QMGY, the enrichment ratio turned out to be 2.49.

On to PVLN, for which the enrichment ratio is at most 0.25.

Regarding YIDA, the enrichment ratio is at most 0.25.

Consider DVRT, for which the enrichment ratio is at most 0.25.

Regarding LYQC, the enrichment ratio was at most 0.25.

NIAF: the enrichment ratio was at most 0.25.

As to GWFT, the enrichment ratio was at most 0.25.

Consider IWWA, for which the enrichment ratio is at most 0.25.

Consider TVMF, for which the enrichment ratio was at most 0.25.

In the case of LSPL, the enrichment ratio was at most 0.25.

Take IQLS: the enrichment ratio is at most 0.25.

For ECPE, the enrichment ratio is at most 0.25.

For PAKI, the enrichment ratio was at most 0.25.

Take INCS: the enrichment ratio was at most 0.25.

On to QYVW, for which the enrichment ratio is at most 0.25.

As to FNIH, the enrichment ratio was at most 0.25.

As for IYKI, the enrichment ratio is at most 0.25.

Regarding HIDL, the enrichment ratio is at most 0.25.

As to TYLH, the enrichment ratio is 0.495.

For SQHH, the enrichment ratio is at most 0.25.

On to HNPT, for which the enrichment ratio was at most 0.25.

With NTYE, the enrichment ratio is at most 0.25.

Take PCKT: the enrichment ratio is at most 0.25.

On to WDIV, for which the enrichment ratio is at most 0.25.

For the variant MCWC, the enrichment ratio was at most 0.25.

FMTS: the enrichment ratio was at most 0.25.

Consider FYSC, for which the enrichment ratio was at most 0.25.

In the case of NWGI, the enrichment ratio was at most 0.25.

With HPTA, the enrichment ratio is at most 0.25.

Consider LVPF, for which the enrichment ratio is at most 0.25.

As for PGGF, the enrichment ratio is at most 0.25.

Turning to ESNG, the enrichment ratio was at most 0.25.

In the case of LDET, the enrichment ratio is at most 0.25.

Take ICAP: the enrichment ratio was at most 0.25.

YNEI: the enrichment ratio is at most 0.25.

As to QQAP, the enrichment ratio was at most 0.25.

With WHSF, the enrichment ratio is at most 0.25.

Consider ISGM, for which the enrichment ratio is at most 0.25.

RFKC: the enrichment ratio is at most 0.25.

ADEP: the enrichment ratio is at most 0.25.

Take DGSN: the enrichment ratio is at most 0.25.

Turning to HKYR, the enrichment ratio was at most 0.25.

In the case of FSCS, the enrichment ratio is at most 0.25.

For the variant QLNN, the enrichment ratio is at most 0.25.

In the case of MMYW, the enrichment ratio is at most 0.25.

For KMRL, the enrichment ratio was at most 0.25.

Turning to DACY, the enrichment ratio is at most 0.25.

As for GTTM, the enrichment ratio was 4.35.

On to GYYA, for which the enrichment ratio is at most 0.25.

Consider HLMS, for which the enrichment ratio is at most 0.25.

Regarding QYII, the enrichment ratio is at most 0.25.

As to QEDH, the enrichment ratio is at most 0.25.

For SHQY, the enrichment ratio was at most 0.25.

In the case of IPRW, the enrichment ratio is at most 0.25.

With LVLI, the enrichment ratio is at most 0.25.

Turning to QAWV, the enrichment ratio worked out at 20.2.

On to PDKS, for which the enrichment ratio is at most 0.25.

With DCYS, the enrichment ratio was at most 0.25.

Turning to IPDG, the enrichment ratio was at most 0.25.

Take LESQ: the enrichment ratio was at most 0.25.

Turning to GHAT, the enrichment ratio was at most 0.25.

For NSGY, the enrichment ratio was at most 0.25.

As to SFMD, the enrichment ratio was at most 0.25.

RWVS: the enrichment ratio is at most 0.25.

As to NELP, the enrichment ratio was at most 0.25.

Consider YWKW, for which the enrichment ratio was at most 0.25.

Consider PHKK, for which the enrichment ratio is at most 0.25.

Consider GDVP, for which the enrichment ratio was at most 0.25.

With SNMF, the enrichment ratio came to 19.4.

In the case of NMGH, the enrichment ratio is at most 0.25.

For CLEP, the enrichment ratio is at most 0.25.

With IYPA, the enrichment ratio was at most 0.25.

In the case of HASQ, the enrichment ratio was at most 0.25.

Take FLNQ: the enrichment ratio was at most 0.25.

For REQI, the enrichment ratio was at most 0.25.

For TFYQ, the enrichment ratio is at most 0.25.

MIHW: the enrichment ratio was at most 0.25.

Consider HDMD, for which the enrichment ratio was at most 0.25.

Turning to NNEA, the enrichment ratio was at most 0.25.

As for NKHA, the enrichment ratio is at most 0.25.

Regarding HNCV, the enrichment ratio is at most 0.25.

KGDP: the enrichment ratio is at most 0.25.

LEAQ: the enrichment ratio stood at 1.03.

For LEHQ, the enrichment ratio was at most 0.25.

On to DGKP, for which the enrichment ratio was at most 0.25.

As for KTHW, the enrichment ratio is at most 0.25.

YQYW: the enrichment ratio is at most 0.25.

Turning to EMRT, the enrichment ratio was at most 0.25.

In the case of NQRK, the enrichment ratio is at most 0.25.

Consider AEEC, for which the enrichment ratio was at most 0.25.

For VQRK, the enrichment ratio is at most 0.25.

As to FREQ, the enrichment ratio is at most 0.25.

For the variant RFEY, the enrichment ratio was at most 0.25.

Regarding GRYN, the enrichment ratio was at most 0.25.

On to LPAE, for which the enrichment ratio is at most 0.25.

ESFL: the enrichment ratio is at most 0.25.

With YMST, the enrichment ratio was 0.652.

Turning to IHKR, the enrichment ratio is at most 0.25.

Turning to VGIR, the enrichment ratio was at most 0.25.

Consider GKQT, for which the enrichment ratio was at most 0.25.

For WEVI, the enrichment ratio is at most 0.25.

Take KAIM: the enrichment ratio is at most 0.25.

Turning to GHSV, the enrichment ratio is at most 0.25.

As to RQDG, the enrichment ratio is at most 0.25.

Take ANCC: the enrichment ratio came out at 0.324.

With HSTF, the enrichment ratio was at most 0.25.

PNFA: the enrichment ratio is at most 0.25.

Regarding GGFA, the enrichment ratio was at most 0.25.

Take LEYI: the enrichment ratio worked out at 8.13.

On to LLID, for which the enrichment ratio is at most 0.25.

Regarding TDHP, the enrichment ratio is at most 0.25.

Consider EVYR, for which the enrichment ratio is at most 0.25.

Regarding VFKG, the enrichment ratio is at most 0.25.

For QDNR, the enrichment ratio was at most 0.25.

For DSHY, the enrichment ratio was at most 0.25.

VYVK: the enrichment ratio is at most 0.25.

With FSRD, the enrichment ratio is at most 0.25.

As for QGDD, the enrichment ratio is at most 0.25.
